Results from the supplement of paper PMC11417369.
Some of the results follow.

Test system: PfHDP1 homeodomain (GST-tagged)
Experiment: gcPBM binding intensity (ln(normalized median fluorescence intensity)); higher = stronger DNA binding
Method in brief: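 Probes on an Agilent 4 × 180k array were primer-extended, double-stranded and 36 bp long, taken from intergenic genomic regions, with negative controls added. GST-tagged P. falciparum DNA-binding domains from E. coli, about 25 μg on average, were applied to the array for 1 h in 1× PBS containing 1% milk, 0.2 mg/ml BSA, 0.5% salmon testes DNA and 0.03% Triton X-100. Binding intensity, obtained after Alexa488 anti-GST antibody detection and a 488 nm scan, is the highest Masliner-normalised natural-log median intensity across replicate spots of either probe orientation.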

Sequence	gcPBM binding intensity (ln)
CCCCCCGTGTTATATACACACATAATCAAATAAAAT [CACACA_site4111]	9.33
TCTTATTAAAATATTTATATAGGTAATCACAATATT [GTGCAC_negctrl_site568]	6.37
AGAAATAAGAAATATACACACATATATATATATATA [CACACA_site2808]	9.3
TATAAAATAAGACATGCATGTTATACATATATATAT [TGCATGCA_site314]	8.51
AAAAAAAGAAAAATTGCACACACTTATAAAAATATA [CACACA_site4014]	9.27
TTTTGTTATGAGAGGGTGCTAATATTTGGATATAAA	6.52
AAAAAAAAAAAAAGTAGTACATAATATGTTCCTCCT [XGTACX_site8356]	6.02
TACTTACATATAATAACACACAAGAAAAAAATAAAA [CACACA_site1033]	6.93
ATTTTTGTACACTTCTTTTTTTTTTTTCTTTTATGT [CACACA_negctrl_site1323]	7.08
TACCCATGCATTTTTGCACACACATATATATATAAA [CACACA_site1429]	10.7
AGACAGCGCACAAACACACAAACACCCACCCACATA [CACACA_site451]	7.82
AGCACAAGCACAAGCACACATTTATATATAAATACA [CACACA_site4642]	6.68
ACAAAATATACAAAATGTACAAAATTTACAAAATAT [XGTACX_site6466]	6.21
AAAAAAAAAAATAAAGAAATCAAAATTGATGAATAA [GTGCAC_negctrl_site692]	6.01
TATATATATTTATGCTGTACCAAATAAGAATAGAAA [XGTACX_site7731]	6.36
TAAATGATTGCATAATGTACATATAATTTTTTTTTT [XGTACX_site1988]	6.59
TATATAAAAAATAAATGTACACATGTAATAATAAAA [XGTACX_site2640]	7.09
TGTGTAAACATATTCACACACATAAATTCGCATATA [CACACA_site6961]	6.39
TATAAATATACACCCACACACATATATATATATATA [CACACA_site3745]	9.4

Sequence	gcPBM binding intensity (ln)
AATCAATTAATATTAGCATAAAATTTTATTATTTTG [XGTACX_negctrl_site479]	6.47
TGACATAAAAAATATACACACTATAATATATATACT [CACACA_site4898]	6.33
TGTATCCATATTTGTTCACACACACCCATATTTATA [CACACA_site9190]	7.03
ATAATATGTATGGTCACACAGACAAGGAAAGAATAA [CACACA_site5164]	6.99
GTATATTTTAATATGACACACATATTATATATATAT [CACACA_site2483]	8.26
ATTTATTATGAACATACACACAAAAAAAAAAAGTAT [CACACA_site2054]	6.96
TAACTTTGAAAAGATGGTACACAATAATATATATAT [XGTACX_site8667]	8.08
ATTGTTATTTATTGTGTGCGCATTAATACATACATA [GTGCAC_site9982]	7.61
TAATGTTGAGAATTTTGTACATATAGATCAATTTAT [XGTACX_site5426]	6.33
TTTAATATTATTATTTTACACACTTTTTTCCTTTTA [CACACA_site8780]	6.42
CAAATAATATTATGAAGTACTTCAAATTTTGAAAGA [XGTACX_site2530]	6.59
TCTTATAAACTCTGCACACATAATATATTAAATGAG [CACACA_site1936]	8.5
AATATAGGTATATCCACACACATATTTATATTTATA [CACACA_site6867]	6.44
TAATATATGTTATATACACACATATAAATATAAATA [CACACA_site6339]	6.63
TGTGTATAAGTCACTTGTACTAGTAGTAAAAAAAAA [XGTACX_site4341]	6.38
TGAAGTATAATTTATCTAATATGTTATATTTTATTT [TGCATGCA_negctrl_site56]	5.79
GTGAGTGAAATATGCAAACACACACCCGAAAAATGT [CACACA_site3197]	6.76
TATGATTTTAATGAAACACACAATTTTATGTTAATA [CACACA_site311]	6.14
TATAAAGGTATACAAAGTACAAAATACATATATACT [XGTACX_site6431]	6.14

Sequence	gcPBM binding intensity (ln)
TAAAGTTTTTCCTATCTATATTTATATTATAAATGA [XGTACX_negctrl_site20]	6.14
AACAGATAATATAAAAAAAAAAAAAAAAATAATTAA [GTGCAC_negctrl_site69]	5.87
TGAATAAATCAAAGCACACATACACAGACATATATA [CACACA_site4316]	6.85
CTTGTCATTTGGCACACACACATGTATAGGTTATTA [CACACA_site5656]	6.72
TATATAAATAAACACACACACACCTTATAATTATTA [CACACA_site9345]	6.96
TTTTAGTTATTGTATTATTATTAATATATAATATCT [CACACA_negctrl_site1528]	6.42
AAAGCATGTTAATATGTATAAATACTGATCATTCAC [GTGCAC_negctrl_site576]	6.14
CTAAAATGTAAAAACGCACACATAATATTATAAAAA [CACACA_site2788]	7.31
TTTTGTTATTATGAAGTGCATTTATGTTCATGTCTA	8.03
AAAAAAAAAAAAAATTCACACAAGACTACTACATTT [CACACA_site4195]	6.19
AAAATCTAATATAATGCACACATAAAAAAAAATCAA [CACACA_site9211]	9.65
ATATTAATTTCTCATGCATGTTCTACCCAATTGTAA [TGCATGCA_site355]	7.03
TATATTATATATATACTGCACTGTTTTACAAAATTA	7.33
AATATTAAAAACAAAACACACAAAAAAAAATAAAAT [CACACA_site702]	6.9
ACCCTTTTATATAAGAGTACAAACGTATTATTAAAT [XGTACX_site2221]	6.49
ATATATGACTAATAAAGTACATACTTCATATAATTA [XGTACX_site6699]	6.51
GTAGTGGTTGAATATACACACATATATATATATATA [CACACA_site2651]	9.39
AACGTGTATTTATATTGTACACATTCATACATCAAA [XGTACX_site3644]	6.7
AGATAATAGGTTACTTGTACATATAAATAAATATAT [XGTACX_site158]	6.04
